# Assay results as given in the RNAGym collection of RNA variant scans (doi:10.1093/nar/gkz1192).
# Read counts are not given, so values of variants with three or more changes are uncertain.
# B1: CPEB3 Ribozyme (parent)
# chain: UAACAGGGGGCCACAGCAGAAGCGUUCACGUCGCAGCCCCUGUCAGAUUCUGGUGAAUCUGCGAAUUCUGCUGUAUAUCUC
# Variants of: B1
# Assay: self-cleavage, relative activity (ratio to wild type); higher = more cleavage; in vitro, sequencing
# Procedure, shortened: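 Libraries of CPEB3 self-cleaving ribozyme mutants came from rounds of error-prone PCR and carried barcodes, which DNA sequencing matched to variants. In vitro transcription used T7 RNA polymerase at 37°C for 5 hours, with a further 15 min in DNase I before EDTA stopped the reaction; the ribozymes cleaved during both steps. The RNA was reverse transcribed with template switching and sequenced on Illumina. Relative activity is the cleaved/total read fraction of a variant divided by that of the unmutated ribozyme, averaged over three batches with at least 5 reads.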
row,Variant,self-cleavage
1,UACCAGGGGGCCACAGCAGAAGCGUUCACGUCGCAGCCCCUGUCUGAUCCUGAUGGAUCUGCGAAUUCUGCUGUAUAUCUC,1.12
2,UACCAGGGGGCCACAGCAGAAGCGUUCACGUCGCAGCCCCUGUCAGAUUCUGGUGAGUUUGCGAAUUCUGCUGUAUAUCUC,0.67
3,UACCAGGGGGACACAGCAGAAGCGUUCACGUCGCAGCCACCGUCAGAUUCUGGUGAAUCUGCGAAUUCUGCUGUAUACCUC,0.18
4,UACCAGGGGGGCACAGCAGAAGCGUUCACGUCGCAGCCCCUGUCAGAUUCUGGUGAAUCUGCGAAUUCUGCUGUAUAUCAC,1.08
5,UACCAGGGGGCCAUAGCAGAAGCGUUCACGUCGCAGCCCCUGUCAGAUUCUGGUGAAUCUGCGAGUUCUGCUGUAUAUCUC,1
6,UACCAGGGGGCCACAGGAGAAGCGUUCACGUCGCAGCACCUGUCGGAUUCAGGUGAACCUGCGAUUUCUGCUGUAUAUCUC,0.08
7,UACCAGGGGGCCACAGCAGAAGGGUUCACGACGCAGCCCCUGUCGGAUUCUGGUGAGUCUGCGAAUUCUGCUGUAUAUCUC,0.1
8,UACCAGGGGGCCACAGCAGAAGCGUUCACGUCGAAGCCCCUGUCUGAUUCUGGUGAAUCUGCGAAUUCUGCUGUAUAUCUC,0.62
9,UACCAGGGGGCCACAGCAGAAGCGUUCACGUCGCAGCCCAUGUCAGACUCUGGUGAAUCUGCGAAUUCUGCUGUAUGUCUC,0.06
10,UACCAAGGGGCCACAGCAGAUGCGUUCACGUCGCAGCCCCUGUCAGAUUCUGGUGAAUCUGCUAAUUCUGCUGUAUAGCUC,0.47
11,UACCAGGAGGCCACAGCAGAAGCGUUCACGUCACGGCCCCUGUCAGAUUCUGGUGAAUCCGCGAAUUCUGCAGUAUAUCUC,0.05
12,UACCAGGGGACCACAGCAGAAGCGCUCACGUCGCAGCCCCUGUCAGAUUCAGGUGAAUCUGCGAAUUCUGCUGUAUAUCUC,0.44
13,UACCAGGGGGCCACAACAGAAGCGUUCACGUCGCAGCCCCUGUCAGAUUUUGGUGAAUCGGCGAAUUCUGCUGUAUACCUC,0.14
14,UACCAGGGGGCCACAACAGAAGCGCUCGCGUCGCAGCCCCUGUCAGAUUCUGGUGAAUCUGCGAAUUCUGCCGUAUAUCUC,0.05
15,UACCAGGGGGCCACAGCAGAAGCAUUCACGUCGCAGCCCCUGUCGGAUUCUGAUGAAUCUGCGAAUUCUGCUGUAUAUCUC,0.15
16,UACCAGGGGGCCACAGCAGAAGCGUUCACGUCCCAGCCCCUGUCGGAUUCUGGAGAAUCUGCGAAUUCUGCUGUAUAUCUC,0.33
17,UACCAGGGGGCCACAGCAGAAGCGAUCACGUCGCAGCCCCUGUCAGAUUCCGGUGAAUCUGCGUAUUCUGCCGUAUAUCCC,0.1
18,UACCAGGGGGCCACAGCAGAAGCGGUCACGUCGCAGCCCCUGUCAGAUUCUGGUGAAUCUGCGAAUUUUGCUGUAUACCUC,0.1
19,UACCAGGGGGCCACAGCAGAAGCGUUCACGUCGCAGCCCCAGACAGAUUCUGGUGAAUCUGCGAAUUCUGCUGUAUAUCUC,0.6
20,UACCAGGGGGCCACAGCAGAAGCGUUCACGUCGCAGCCCCCGACAGAUUCUGGUGAAACUGCGAAUUCUGCUGUAUAUCUC,0.3
21,UACCAGGGGGCCACAGCAGAAGCGUUCACGUCGCAGCCCCUGUCAGAUUCUGGUGAAUCUGCGAAUUCCGCUGCAUAUCUC,0.95
22,UAGCCGGGGGCCACAGCAGAAGCGUUCACGUCGCAGCCCCUGUCAGAUUCUGGUGAGUCUGCGAAUUCUGCUGUAUAUCUC,0.86
23,UAGCCGGCGGCCACAGCGGAAGCGUCCACGUCGCAGCCCCUGUCAGAUUCUGGUGGAUCUGCGAAUUCUGCUCUAUAUCUC,0.9

row,Variant,self-cleavage
1,UAGCGGGGGGCCGCAGCAGUAGCGUUCACGUCGCAGCCCCUGUCAGAUUCUGGUGAAUCUGCGAGUUCUGUUGUAUAUCUC,0.26
2,UAGCGGGGGGCCGCAGCAGAAGCGCUCACGUCGUAGCCCCUGUCAGAUUCUGGUGAAUCUGCGAAUUCUGCUGAAUAUCUC,0.14
3,UAGCGGGGGGCCACGGCAGAAGCGUUCACGUCGCUGCCCCUGUCAGAUUCUGGUGAAUCUGCGAAUUCAGCUGUAUAUCUC,0.3
4,UAGCGGGGGGCCACAGCGGAAGCGUUCGCGUCGCAGCCCCUGUCAGAUUCUGGUGAAUCUGCGUAUUCUGCUGUAUACCUC,0.35
5,UAGCGGGGGGCCACAGCGGAAGCGUUCACGUUGCAGCCCCUGUCAGGUUCUGGUGAAUCCGCGAAGUCUGCUGUAUAUCUC,0.07
6,UAGCGGGGGGCCACAGCAGGAGCGCUCACGUCGCAGCCCCUGUCAGAUUCUGGUGAAUCUGCGAGUUCUGCUGUAUACCUC,0.35
7,UAGCGGGGGGCCACAGCAGUAGUGUUCACGUCGCAGCCCCUGUCAGAUUCUGGUGGAUCUGCGAAUUCCGCUGUAUACCUC,0.17
8,UAGCGGGGGGCCACAGCAGAGGCGUUCACGUCGCAGCCCCUGUCAGGUUCUGGUGAAUCUGCGAAUUCUGCUGUAUAUCUC,0.39
9,UAGCGGGGGGCCACAGCAGAAGCGUUCACGUCGCGGCCCCUGUCAGAUUCAGGUGAAUCUGCGAACCCUGCCGUAUAUCUC,0.44
10,UAGCGGGGGGCCACAGCAGAAGCGUUCACGUCGCGGCCCCUGUCAGAUUCGGGUGAAUCUGCGAAUUCUGCUGUAUAUCAC,1.21
11,UAGCGGGGGGCCACAGCAGAAGCGUUCACGUCGCAGCCCCUGUCAGAUUCUGGUGAGUCUGCGAAUUCUGCUGUAUAUCUC,0.64
12,UAGCGGGGGGCCACAGCAGAAGCGUUCACGUCGCAGCACCUGUCAGAUUCUGGUGAAUCUGCGAAUUCUGCUGUAUAUCUC,0.5
13,UAGCGGUGGGCCACAGCAGAAGCGUUCACGUCGCAGCCCCUGUUAGACUCUGGUGAAUCUGCGAGUUCUGCUGUAUUUCUC,0.08
14,UAGCGGGCGGCCACAGCGGAAGCGUUCACGUCGCAGCCCCUGUCAGAUUCUGGUGAAUCUGCGAAUUCUGCUGUUUAUCAC,0.12
15,UAGCGGGGGGCCACAGCAGAAGCGCCCACGUCGCAGCCCCUGUCAGAUUCAGGUGAGUCUGCGAAUUCGGCUGUAUAUCUC,0
16,UAGCGGGGGGCCACAGCAGAAGCGCUCACGUCGCAGCCCCUGACAGAUUCUGGUGAAUCUGCGAAUUCUGCUGUAUAUCUC,0.61
17,UAGCGGGGGGCCACAGCAGAAGCGUUCACGUCGCAGCCCCGGUCAGAUUCUGGUGAAUCUGCGAACUCUGCCGUAUAUCUC,0.15
18,UAGCGGGGGGCCACAGCAGAAGCGUUCACGUCGCAGCCCCUGGCAGAUUCUGGUGAAUCUGCGAAUUCUGCUGUAUAUCCC,0.7
19,UAGCGGGGGGCCACAGCAGAAGCGUUCACGUCGCAGCCCCUGUCAGAUUCAGGUGAAUCUGCGAAUUCUGCUGUAUAUCUC,0.45
20,UAGCUGGGGGCCUCAGCAGAGGCGUUCACGUCGCAGCCCCUGUCAGAUUCUGGUGAAUCUGCGAAUCCUGCUGUACAUCUC,0.19
21,UAGCUGGGGGCCACGGCAGAAGCGUUCACGUCGCAUCCCCUGUCAGAUUCUGGUGAAUCUCCGAAUUCUGCUGUAUAUCUC,0.39
22,UAGCUGGGGGCCACAGCAGAAGCGUUCACGUCGCUGCCCCUGUCAGAUUCUGGAGAAUCUGCGAAUUCUGCCGUAUAUCUC,0.74
23,UAGCUGGGGGCCAUAGCGGAAGCGUUCACGUCGCAGCCCCUGUCAGAUUCUGGUGAAUCUGCGAAUUCUGCUGUAUAUCUC,0.9

row,Variant,self-cleavage
1,UAGCUGGGAGCCACAGCAGAAGCGUUCACGUCGCAGCCCCUGUCAGAUUCUGGUGAAUCUGCGAAUUCUGCUGUAUAUCUC,0.58
2,UAGCUGGGAGCCACAGCAGAAGCGUUCGCGUCGCAGCCCCUGUCAGAUUCUGGUGAAUCUGCGAAUUCUGCUGUAUAUCUC,0.28
3,UAGCUGGGAACCACAGCAGAAGCGUUCGCGUCGCAGCCCCUGUCAGAAUCUGGUGAAUCUGCGAAUUCUGCUGUAUAUCUC,0.11
4,UAGCUGGGGGCCACAGCAGAAGCGUACACGUCGCAGCCCCUGUCAGAUUCUUGUGAAUCUGCGAAUUCUGCCGUAUAUCUC,1.09
5,UAGCUGGGGGCCACAGCAGAAGCGUUCACGUCGCAGCCCCUGUCAGAUUCUGGUGAAUCUGCGAAUUCUGCGGUAUAACUC,1.07
6,UAGCAGGGGGCCCCAGCAGAAGCGACCACGUCGCAGCCCCUGUCAGAUUUUGGUGAAUCUGCGAAUUUUGCUGUGUAUCUC,0.06
7,UAGCAGGGGGCCCCAGCAGAAGCGCUCACGUCGCAGCCCCUGUCCGAUUCAGGUGAAUCUGCGAAUUCUGCUGUAUAUCGC,0.05
8,UAGCAGGGGGCCGCGGCAGAAGCGUUCACGUCGAAGCCCCUGUCAGAUUCUGGUGAAUCAGCGGAUUCUGCUGUAUAUCUC,0.16
9,UAGCAGGGGGCCGCGGCAGAAGCGUUCACUUCGCAGCCCCUGUCAGAUUAUGGUGACACUGCGAAUUCUGCUGUAUAUCUC,0.08
10,UAGCAGGGGGCCGCUGCAGAAGCGUUCACGUCGCAGCCCCUGUCAGAUCCUGGUGAAUCUGCGUAUUCUGCUGUAUAUCUC,0.05
11,UAGCAGGGGGCCGCAGCAGAAGCGUUCGCGUCGCGGCCCCUGUCAGAUUCUGGUGAAUCCGCGAGUUCUGCUGUAUAUCUC,0.4
12,UAGCAGGGGGCCGCAGCAGAAGCGUUCGCGUCGCAGCCCCUGUCAGAUUCUGGUGAAUCUGCGAAUUCUGCCGUAUAUCUC,0.56
13,UAGCAGGGGGCCGCAGCAGAAGCGUUCACGUCGAAGCCCCUAUCAGAUUCUGGUGAAUCUGCGAAUUCUGCUGCAUAUCUC,0.12
14,UAGCAGGGGGCCGCAUCAGAAGCGUUCACGUCGCAGCCCCUGUCAGAUUCUGCUGAAUCUGCGAAUUCUGCUGUAUAUCUC,0.13
15,UAGCAGGGGGCCGCAGCAAAAGCGUUCACGUCGCAGCCCCUGUCAGACUCUGGUGAAUCUGCGAAUUCUGCUGUAUAUCUC,0.54
16,UAGCAGGGGGCCGCAGCAGAAACGUUCACGUCGCAGCCCCUGUCAGAUUCUGGUGAAUCAGCGAAUUCUGCUAUAUAUCUC,0.24
17,UAGCAGGGGGCCGCAGCAGAAGCGUUCACGUCGCAGCCCCUGUCAGAUUCUGGUUAAUCUGCUAAUUCUGCUGUAUAUCUC,0.56
18,UAGCAGGGGGCCGCAGCAGAAGCGUUCACGCCGUAGCGCCUGUCAGAUUCUGGUGAAUCUGUGAAUUCUGCUGUAUAUCUC,0.12
19,UAGCAGGGGGCCGCAGCAGAAGCGUUCACGCCGCAGCCCCUGUCAGAUUCCGGUGAUUCUGCGAAUUCUGCUGUAUAUCUC,0.21
20,UAGCAGGGGGCCGCAGCAGAAGCGUUCACGUCGCAGCCCCCGUCAGAUUCUGGUGAAUCUGCGAAUUCUGCUGUAUAUCUC,0.97
21,UAGCAGGGGGCCGCAGCAGAAGCGUUCACGUCGCAGCCCCUGACAGAUUCUGGUGGAUCUGCGAAUUCUGCUGUAUAUCUC,0.49
22,UAGCAGGGGGCCUCUGCAGAAGCGUUCACGUCGCAGCCCCUGUCAGAUUCUGGUGAAUCUGCGAAUUCCGCUAUAUAUCUC,0.21
